Publication PMC4336329 (PLoS ONE, 2015)
About 2,200 (0.71%) of roughly 310,000 compounds showed an effect of 50% or more. The effect is printed as a negative number. The list shows a part of the results.

Each molecule was assayed against human ether-à-go-go-related gene (hERG) potassium channel (human, UniProt Q12809) (assay: primary screen, population patch clamp on CHO cells stably expressing hERG).
Chain of human ether-à-go-go-related gene (hERG) potassium channel (Q12809 whole entry, looked up): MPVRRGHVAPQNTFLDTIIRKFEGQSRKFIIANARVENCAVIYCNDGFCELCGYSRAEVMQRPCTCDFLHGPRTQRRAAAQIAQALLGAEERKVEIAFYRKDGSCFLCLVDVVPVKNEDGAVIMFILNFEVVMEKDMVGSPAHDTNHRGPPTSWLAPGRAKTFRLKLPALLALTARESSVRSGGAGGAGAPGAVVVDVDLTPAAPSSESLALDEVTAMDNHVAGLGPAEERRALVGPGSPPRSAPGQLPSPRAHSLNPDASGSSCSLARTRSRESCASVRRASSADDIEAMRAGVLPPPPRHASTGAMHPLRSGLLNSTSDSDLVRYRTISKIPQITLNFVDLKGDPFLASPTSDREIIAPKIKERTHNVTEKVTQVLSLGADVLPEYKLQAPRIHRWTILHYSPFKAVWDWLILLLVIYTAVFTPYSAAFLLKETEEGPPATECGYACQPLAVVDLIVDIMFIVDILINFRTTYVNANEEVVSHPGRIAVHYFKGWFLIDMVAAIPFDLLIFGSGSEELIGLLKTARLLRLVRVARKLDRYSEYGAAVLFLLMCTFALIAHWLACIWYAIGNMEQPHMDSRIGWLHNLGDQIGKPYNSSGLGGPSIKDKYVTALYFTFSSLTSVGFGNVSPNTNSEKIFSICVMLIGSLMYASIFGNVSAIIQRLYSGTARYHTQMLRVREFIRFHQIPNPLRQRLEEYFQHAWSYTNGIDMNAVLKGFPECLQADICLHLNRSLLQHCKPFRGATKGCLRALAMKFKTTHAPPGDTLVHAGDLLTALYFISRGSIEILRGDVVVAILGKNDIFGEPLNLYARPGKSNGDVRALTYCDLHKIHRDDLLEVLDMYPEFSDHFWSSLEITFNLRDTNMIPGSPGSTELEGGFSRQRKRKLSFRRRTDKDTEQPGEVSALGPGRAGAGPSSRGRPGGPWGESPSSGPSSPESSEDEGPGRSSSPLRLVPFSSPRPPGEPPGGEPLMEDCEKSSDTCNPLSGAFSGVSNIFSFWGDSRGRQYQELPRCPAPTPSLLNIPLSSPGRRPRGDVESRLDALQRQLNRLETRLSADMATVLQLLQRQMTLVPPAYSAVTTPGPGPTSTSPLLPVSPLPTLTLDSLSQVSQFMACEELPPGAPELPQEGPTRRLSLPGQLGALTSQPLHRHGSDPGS

| Structure (SMILES) | hERG current change (%, negative = inhibition) at 1uM [%] |
| --- | --- |
| COCCn1c(=NC(=O)c2cc3ccccc3oc2=O)sc2cc(S(N)(=O)=O)ccc21 | 2.57 |
| CC(C)N(CC(N)=O)c1ncnc2sc(-c3ccccc3)cc12 | 7.93 |
| Cc1ccc(S(=O)(=O)c2nc(N3CCOCC3)sc2Cl)cc1 | 2.61 |
| C=CCc1ccccc1OCC(O)CN1CCN(CCO)CC1.Cl (stereo not drawn) | 17.1 |
| COc1ccc(CN(C)S(=O)(=O)c2nnc(NC(=O)c3cccc(F)c3)s2)cc1OC | 6.86 |
| COc1ccc(F)cc1S(=O)(=O)N1CCN(C(=O)c2ccco2)CC1 | 14.6 |
| Cc1ccc(C(=O)CCNc2ccc(Cl)cc2)o1 | -0.237 |
| CCOC(=O)COn1c(SCC(=O)OCC)nc2ccccc2c1=O | 1.27 |
| Cc1nc2c(-c3ccccc3)cnn2c(N)c1-c1ccccc1 | 12.4 |
| CC1CC(=O)c2cnc(N3CCOCC3)nc2C1 (stereo not drawn) | 2.53 |
| Cc1ccnc(NCc2ccccc2O)c1 | 14.1 |
| NN1C(=O)/C(=C\c2ccco2)SC1=S | 6.71 |
| Cc1cc(C)c(S(=O)(=O)NCC2CCC(C(=O)NCc3ccccn3)CC2)c(C)c1 (stereo not drawn) | -1.46 |
| COc1ccccc1CNS(=O)(=O)c1ccc(Br)s1 | 8.44 |
| CCOc1ccc(NC(=O)CN(C)C(=O)C2CSC3(C)CCC(=O)N23)cc1OCC (stereo not drawn) | 4.55 |
| c1ccc(CN2CCN(c3ncnc4nc[nH]c34)CC2)cc1 | 8.17 |
| NS(=O)(=O)c1cccc(NC(=O)CN2CCCc3ccccc32)c1 | 11.6 |
| O=C(/C=C/c1ccc(Cl)cc1)NC1CC2CCC1C2 (stereo not drawn) | -2.01 |
| CN1CCN(C(=O)c2ccc3c(c2)N(Cc2ccccc2F)C(=O)c2ccccc2S3=O)CC1 (stereo not drawn) | 13.9 |
| O=C(COC(=O)c1ccc[n+]([O-])c1)Nc1c(Br)cc([N+](=O)[O-])cc1Br | 11.5 |
| COC(=O)C1CCN(CC(=O)Nc2ccc(C(=O)Nc3ccccc3OC)cc2)CC1 | 5.28 |
| Cc1cc(C(=O)NCCN2C(=O)S/C(=C\c3cccs3)C2=O)ccc1[N+](=O)[O-] | 2.93 |

| Structure (SMILES) | hERG current change (%, negative = inhibition) at 1uM [%] |
| --- | --- |
| CCOc1ccc(NS(=O)(=O)c2ccc(C(=O)N3CCC3)cc2)cc1 | 8.42 |
| CN1CCCN(S(=O)(=O)c2cccc(C(F)(F)F)c2)c2nc3ccccc3nc21.Cl | 7.05 |
| Cc1[nH]n(-c2ccc([N+](=O)[O-])cc2)c(=O)c1C=NCCN1CCN(C(=O)c2ccc(F)cc2)CC1 | -81.7 |
| Cc1ccc(-n2nnnc2CNC(=O)C2CC(=O)N(c3ccc(F)cc3)C2)cc1C (stereo not drawn) | -9.57 |
| Brc1ccc(/C=N/Nc2ccccc2)cc1 | 12.6 |
| Cc1onc(-c2ccccc2Cl)c1C(=O)N1CCCCC1 | 15.3 |
| COCC(=O)NC1(c2nnnn2CCOC(=O)Nc2ccc(Cl)cc2)CCCCC1 | 0.725 |
| CC[n+]1c(/C=C/C=C/N(C(C)=O)c2ccccc2)sc2cc(OC)ccc21.[I-] | 7.77 |
| CC(C)CCn1c(=O)c(C(=O)Nc2ccccc2S(N)(=O)=O)c(O)c2ccccc21 | -5.07 |
| CC1CC(C)CN(S(=O)(=O)c2ccc3c(c2)oc(=O)n3CC(=O)N(C)Cc2ccccc2)C1 (stereo not drawn) | 8.45 |
| CC(C)(C)c1[nH]nc2c1C(c1ccc(OC(=O)c3ccco3)cc1)C(C#N)=C(N)O2 (stereo not drawn) | 15.7 |
| Cc1cc(C)nc(/N=C2\NC(=O)CC(C(=O)O)N2CCc2c[nH]c3ccccc23)n1 (stereo not drawn) | 9.1 |
| CCOC(=O)N1CCN(C(=O)COC(=O)COc2c(C)cc(C)cc2C)CC1 | 5.89 |
| O=C(Nc1ccc(Cl)c(C(F)(F)F)c1)NC1CC2CCCC(C1)N2C1CC1 (stereo not drawn) | 3.65 |
| Cc1csc2nc(CN3CCN(CC(=O)N(C)C)CC3)cc(=O)n12 | 17.3 |
| CC1(C)Cc2cccc(OCC(=O)N3CCN(S(=O)(=O)c4ccc(F)cc4)CC3)c2O1 | 4.38 |
| Cc1[nH]ncc1-c1nc2ccccc2[nH]1 | 11.5 |
| CC(=O)Nc1cccc(C(=O)OCC(=O)N2CCC(c3ccccc3)=N2)c1 | -2.66 |
| CCOc1ccc(Cc2nnc(SCC(=O)Nc3ccc(C(C)=O)cc3)[nH]c2=O)cc1 | 17.5 |
| CC1CC(NNC(=O)c2ccccc2)=Nc2ccccc2N1C (stereo not drawn) | 6.85 |
| O=C1C2C3C=CC(C3)C2C(=O)N1c1nc2ccccc2s1 (stereo not drawn) | 6.86 |
| O=C(O)CN1C(=O)CSC1=S | 15.4 |

| Structure (SMILES) | hERG current change (%, negative = inhibition) at 1uM [%] |
| --- | --- |
| CC(=O)N1CCN2C(=O)C1CCCC(=O)c1cc(C(C)C)ccc12 (stereo not drawn) | 19.1 |
| CCCCOC(=O)c1ccc(NC(=O)c2nn(C)cc2Br)cc1 | 13.1 |
| CCOc1ccccc1C(=O)N1CCN=C1SC | 12 |
| CCOc1ccccc1NC(=O)c1cc(C(=O)Nc2ccccc2OCC)cc(N2C(=O)CCC2=O)c1 | 9.33 |
| C=CCn1c(SC(C)C(=O)c2c(N)n(C)c(=O)n(C)c2=O)nnc1-c1ccoc1C (stereo not drawn) | 10.1 |
| Cc1cc(C)cc(N(CC(=O)Nc2ccc(C(F)(F)F)cc2)S(=O)(=O)c2c(C)[nH]c(=O)[nH]c2=O)c1 | -26.1 |
| CC(=O)Nc1ccc(NC(=O)CC2Nc3cccc4cccc(c34)NC2=O)cc1 (stereo not drawn) | 9.98 |
| O=C(NCc1ccccc1F)C1CCN(C(=O)c2sccc2-n2cccc2)CC1 | 9.46 |
| CCOc1ccccc1-n1cnc(C#N)c1N | 13.6 |
| CCOc1ccc(NC(=O)CN(C)C(=O)CCCc2nc3ccccc3c(=O)[nH]2)cc1OCC | 15.9 |
| CCOC(=O)CNC(=O)c1sc2ncnc(N3CCc4ccccc4C3)c2c1C | -23.5 |
| O=C(NC(=S)Nc1ccc(N2CCOCC2)cc1)c1ccc(Cl)cc1 | 11.2 |
| COc1ccc(C(=O)Nc2ccc(Cl)cc2C(=O)NCc2ccco2)cc1OC | -4.14 |
| O=C(NC(=S)Nc1cccc(CO)c1)c1ccc(-c2ccccc2)cc1 | 9.54 |
| N#C/C(=C/c1ccc(-c2cc([N+](=O)[O-])ccc2Cl)o1)C(N)=O | 11.7 |
| Cc1nc([N+](=O)[O-])c(C(=O)O)n1C | 14.5 |
| COc1cc(C)c(CN2CCSCC2)cc1C | 10.9 |
| Cc1cc(C)cc(NC(=O)CNC(c2ccccc2)c2ccccc2)c1 | 14.2 |
| CSc1cccc(NC(=S)NCCCO)c1 | -4.89 |
| COC(=O)c1sc(NC(=S)NC(=O)c2cccc(C)c2)nc1C | 9.67 |
| COc1ccc(/C=N/OCC(=O)NC(c2ccccc2)c2ccccc2)cc1OC | 9.01 |
| COCCN1Cc2cccc(C(=O)Nc3cccc(OC)c3)c2C1=O | 6.47 |

| Structure (SMILES) | hERG current change (%, negative = inhibition) at 1uM [%] |
| --- | --- |
| CC(=O)N(Cc1ccc(Br)cc1)c1cccc(C)c1C | 3.8 |
| COc1c2ccoc2nc2c(OC)cccc12 | 12.6 |
| O=C(O)CC(C(=O)O)c1cn(Cc2ccccc2)c2ccccc12 (stereo not drawn) | 14.8 |
| CS(=O)(=O)N(CC(=O)O)c1ccc2c(c1)OCO2 | 4.18 |
| O=C(NCc1ccc(F)cc1)C1CCN(S(=O)(=O)N2CCC3(CC2)OCCO3)CC1 | 15.4 |
| CC1CC(C)CN(S(=O)(=O)c2ccc(NC(=O)c3ccc(=O)[nH]c3)cc2)C1 (stereo not drawn) | 4.66 |
| O=C(NCCCN1CCc2ccccc2C1)C1CCN(S(=O)(=O)N2CCCC2)CC1 | 4.76 |
| O=C(CCc1ccccc1)Nc1ccnn1C1CCN(Cc2ncc[nH]2)CC1 | 15.5 |
| COc1nc(NCCN2CCOCC2)nc(Nc2ccc([N+](=O)[O-])cc2)n1 | -16.6 |
| O=C(Nc1ccc(NC(=O)C2CCCCC2)nc1)c1ccccn1 | 4.7 |
| O=C(c1cccc(S(=O)(=O)NCc2ccccc2)c1)N1CCCC1 | 7.8 |
| Cc1ccc(C(O)C(=O)c2ccco2)cc1 (stereo not drawn) | 10.2 |
| CN(C)C(=O)CCC(=O)N1CCCC(C(=O)c2ccc3c4c(cccc24)CC3)C1 (stereo not drawn) | -21.1 |
| C[C@@H](O)C1NC(=O)[C@H](CCCCN)NC(=O)c2cc([N+](=O)[O-])cc(I)c2NCCC[C@@H](C(N)=O)NC1=O (stereo partly drawn) | 19.6 |
| O=C(Cn1ncc2c3ccccc3n(Cc3ccccc3F)c2c1=O)N1CCN(c2ccccn2)CC1 | 12.3 |
| Cc1n[nH]c(C)c1S(=O)(=O)N1CCCC(C(=O)NCC2COc3ccccc3O2)C1 (stereo not drawn) | 5.79 |
| CCCCn1c(=O)c(CCC(=O)OCC(=O)NCc2ccc(OC)c(OC)c2)nc2ccccc21 | 5.96 |
| O=C(c1ccc(-c2cccc(Cl)c2)o1)N1CCN(c2ccc([N+](=O)[O-])cc2)CC1 | -14.1 |
| CC(C)c1ccc(NC(=S)NCc2ccc3c(c2)OCO3)cc1 | 11.1 |
| O=C(COc1ccccc1)c1cn(CC(=O)N2CCCC2)c2ccccc12 | 10 |
| NNC(=O)c1cnn(Cc2ccccc2)c1N | 9.01 |
